Assay results published in the supplement of paper PMC11417369.
± gives the standard deviation of the averaged measurements. The list shows a part of the results.

Test system: PfAP2-G AP2 domain (GST-tagged)
Assay: gcPBM binding intensity (ln(normalized median fluorescence intensity)); higher = stronger DNA binding
In short: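 Using an Agilent 4 × 180k array, primer-extended double-stranded 36-bp intergenic genomic probes and negative controls were exposed for 1 h to GST-fused P. falciparum DNA-binding domains expressed in E. coli. Binding was carried out in 1× PBS with 1% milk, 0.2 mg/ml BSA, 0.5% salmon testes DNA and 0.03% Triton X-100, and protein was detected with Alexa488 anti-GST antibody and a 488 nm scan. Binding intensity is the highest Masliner-normalised natural-log median intensity across replicate spots of either probe orientation.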

First: TTCCAATGATAAAATTGTACTTGAAGAAAATTTTTT [XGTACX_site4607]
Second: AATATGTAAATATGGGTGCTTTAAAATATATTCATT [GTGCAC_site9583]
The “gcPBM binding intensity (ln)” value of the first is higher: 10.9 ± 0.65 for the first, 10.02 ± 0.099 for the second.

“TAATTATTTTTATTGTTGCACTAGTAAAATTTTAAG [GTGCAC_site9946]” and CAATTTATTATATATGTGCACATATAATTTTACAAA are within error of each other in “gcPBM binding intensity (ln)” value: 10.2 ± 0.16 for the first, 10.3 ± 0.33 for the second.

“TACATTTTAATATAAGCATGCCTTTAGTTTTTTTCT [TGCATGCA_site829]” and “AATACAAATATATATGCACACACATATACATACATA [CACACA_site8677]” are within error of each other in “gcPBM binding intensity (ln)” value: 9.82 ± 0.12 for the first, 10.1 ± 0.16 for the second.

Going from “AAAAAGAAATACAAATAATATATATATATATATATT [TGCATGCA_negctrl_site458]” to “CATAAAAATTGAAGCACACACACAAAAGAAATACAA [CACACA_site1112]”, the “gcPBM binding intensity (ln)” value rises from 9.68 ± 0.2 to 10.3 ± 0.2.

“AATAAACAAATAAATAAACACACAATATATGTATAT [CACACA_site9268]” and “TTTTTTTTTTCTTTTTTTTATTATATTAACGGAATT [GTGCAC_negctrl_site104]” are within error of each other in “gcPBM binding intensity (ln)” value: 9.76 ± 0.2 for the first, 9.82 ± 0.17 for the second.

“CACATACAGATATATACACACAAATATAAATACACA [CACACA_site6512]” and “AATAAATATAAAAATGCACACACACTAATAAAAAAA [CACACA_site8201]” are the same in “gcPBM binding intensity (ln)” value: 10.2 ± 0.2 for the first, 10.2 ± 0.13 for the second.

TTACTTATATGCATAGTGCAAATTTGGTAAATATCT and “AAAATAAATATATTATCCACGTTGTATATATATATA [XGTACX_negctrl_site136]” are within error of each other in “gcPBM binding intensity (ln)” value: 10.1 ± 0.16 for the first, 10 ± 0.29 for the second.

Compared with “TTTCTTTAACAAGTTAAACACACATACATATATACA [CACACA_site8810]”, “ATCATTTCTATATAAGCACACACGTGGAATTTTTTT [CACACA_site2786]” is higher in “gcPBM binding intensity (ln)” value: 10.03 ± 0.099 for the first, 10.2 ± 0.035 for the second.

Compared with “TATTTTTTTTGATATTGTACTTTTTTATTATTTTTT [XGTACX_site566]”, “TAAAAATTTAAGAAAACATGCATCTAACATATATAT [TGCATGCA_site342]” is lower in “gcPBM binding intensity (ln)” value: 11.5 ± 0.98 for the first, 9.93 ± 0.085 for the second.

Going from “AATATACAAAATAAATAAAATATATATATATATATA [CACACA_negctrl_site216]” to “TTTTATTTTCGATGATGTACATTAAATTATACAGTA [XGTACX_site6053]”, the “gcPBM binding intensity (ln)” value rises from 9.89 ± 0.42 to 11.1 ± 0.62.

“AAATATTACTCCTCAAGTACACATAAAAAAAAAATA [XGTACX_site2085]” and “TTGTTTTCACCAAATACACACAAGCATACACCCCAT [CACACA_site2717]” are within error of each other in “gcPBM binding intensity (ln)” value: 11.4 ± 0.97 for the first, 10.8 ± 0.55 for the second.

“ATACATAAATTTATACGTACATATATAGATACATAA [XGTACX_site675]” and “TTACATGCTAAAATTTGTACATATATGATAAATATT [XGTACX_site2648]” are within error of each other in “gcPBM binding intensity (ln)” value: 11.5 ± 0.91 for the first, 10.9 ± 0.48 for the second.

“AAGTAAAATAAGTATACACACATAAATATGTAAATA [CACACA_site6467]” and “TTCTTACACAAAAAAATGAAATCAATCAAAAAAAAA [CACACA_negctrl_site869]” are within error of each other in “gcPBM binding intensity (ln)” value: 10.1 ± 0.16 for the first, 9.895 ± 0.078 for the second.

“TATATATTTCAATAATGTACATATAATATATATATT [XGTACX_site4124]” and “AATGTGTAGACACGCACACACAAAAAAATATTTATA [CACACA_site7384]” are within error of each other in “gcPBM binding intensity (ln)” value: 11.1 ± 0.64 for the first, 10.2 ± 0.27 for the second.

Going from “GTATATATGTATGTATGTACTTATAAAGTTGCATAT [XGTACX_site5616]” to “TCTACATCTGTATATAAACACACAACAAAAATGCTT [CACACA_site9271]”, the “gcPBM binding intensity (ln)” value falls from 11.3 ± 0.71 to 9.935 ± 0.035.

“TATTTATTGTGATACTTATATTATTTCATGATTAAT [CACACA_negctrl_site738]” and “ACTTTATTATATATTTGTACATATATTTTTAATTTC [XGTACX_site4144]” are within error of each other in “gcPBM binding intensity (ln)” value: 10.2 ± 0.29 for the first, 11 ± 0.54 for the second.

First: ACATTCTGATGGTGATTATTAATTATTACAAAAATT [CACACA_negctrl_site283]
Second: GAAAATATATTTAAGATGCACTTTAAAAATGTACTT
The “gcPBM binding intensity (ln)” value of the first is lower: 9.845 ± 0.021 for the first, 10.5 ± 0.26 for the second.

“AAGTAATCATCATAAAGTACTAAATTATATTGTCAA [XGTACX_site5841]” and “AAATTATATATAAAATGTACATATGTAGGTAATTTT [XGTACX_site5047]” are within error of each other in “gcPBM binding intensity (ln)” value: 10.7 ± 0.38 for the first, 10.9 ± 0.49 for the second.

“TGATTCTTTTCAAAGTGTACAGTAATTTTTATGTAA [XGTACX_site8452]” and “TATATAATTCAAAAATGTACATGAAATATAAATATT [XGTACX_site7984]” are within error of each other in “gcPBM binding intensity (ln)” value: 11.4 ± 0.76 for the first, 11 ± 0.59 for the second.

Compared with “ATATTATAAATTATAGGTACACACAAAAAAAAAAAG [XGTACX_site2637]”, “AAATATATTGCATATATACACACGTATATATATTAA [CACACA_site2759]” is lower in “gcPBM binding intensity (ln)” value: 11.3 ± 0.84 for the first, 9.94 ± 0.014 for the second.

Compared with “ATATCAAGCTATGAGAAAAAAAAAAAGAAAAAAAAA [CACACA_negctrl_site1370]”, “AAGTTTTCTTAAAGATGTACTTTTTAAAAATAAAAT [XGTACX_site3063]” is higher in “gcPBM binding intensity (ln)” value: 9.845 ± 0.092 for the first, 11.3 ± 1 for the second.

Going from “TATCAGCAATGGAAAACATGCAAAAAATTAATATAT [TGCATGCA_site623]” to “GCCATTAATTTATACACACACATTATAACTTTTTAT [CACACA_site6492]”, the “gcPBM binding intensity (ln)” value rises from 9.74 ± 0.16 to 10.2 ± 0.12.
